Assay results reported in article PMC4336329 (PLoS ONE, 2015).
Screen size: about 310,000 compounds; about 2,200 (0.71%) showed an effect of 50% or more. Effects have a minus sign here. The list shows a part of the results.

molecular target: human ether-à-go-go-related gene (hERG) potassium channel (human, UniProt Q12809); test: primary screen, population patch clamp on CHO cells stably expressing hERG
Sequence (Q12809 whole entry, looked up): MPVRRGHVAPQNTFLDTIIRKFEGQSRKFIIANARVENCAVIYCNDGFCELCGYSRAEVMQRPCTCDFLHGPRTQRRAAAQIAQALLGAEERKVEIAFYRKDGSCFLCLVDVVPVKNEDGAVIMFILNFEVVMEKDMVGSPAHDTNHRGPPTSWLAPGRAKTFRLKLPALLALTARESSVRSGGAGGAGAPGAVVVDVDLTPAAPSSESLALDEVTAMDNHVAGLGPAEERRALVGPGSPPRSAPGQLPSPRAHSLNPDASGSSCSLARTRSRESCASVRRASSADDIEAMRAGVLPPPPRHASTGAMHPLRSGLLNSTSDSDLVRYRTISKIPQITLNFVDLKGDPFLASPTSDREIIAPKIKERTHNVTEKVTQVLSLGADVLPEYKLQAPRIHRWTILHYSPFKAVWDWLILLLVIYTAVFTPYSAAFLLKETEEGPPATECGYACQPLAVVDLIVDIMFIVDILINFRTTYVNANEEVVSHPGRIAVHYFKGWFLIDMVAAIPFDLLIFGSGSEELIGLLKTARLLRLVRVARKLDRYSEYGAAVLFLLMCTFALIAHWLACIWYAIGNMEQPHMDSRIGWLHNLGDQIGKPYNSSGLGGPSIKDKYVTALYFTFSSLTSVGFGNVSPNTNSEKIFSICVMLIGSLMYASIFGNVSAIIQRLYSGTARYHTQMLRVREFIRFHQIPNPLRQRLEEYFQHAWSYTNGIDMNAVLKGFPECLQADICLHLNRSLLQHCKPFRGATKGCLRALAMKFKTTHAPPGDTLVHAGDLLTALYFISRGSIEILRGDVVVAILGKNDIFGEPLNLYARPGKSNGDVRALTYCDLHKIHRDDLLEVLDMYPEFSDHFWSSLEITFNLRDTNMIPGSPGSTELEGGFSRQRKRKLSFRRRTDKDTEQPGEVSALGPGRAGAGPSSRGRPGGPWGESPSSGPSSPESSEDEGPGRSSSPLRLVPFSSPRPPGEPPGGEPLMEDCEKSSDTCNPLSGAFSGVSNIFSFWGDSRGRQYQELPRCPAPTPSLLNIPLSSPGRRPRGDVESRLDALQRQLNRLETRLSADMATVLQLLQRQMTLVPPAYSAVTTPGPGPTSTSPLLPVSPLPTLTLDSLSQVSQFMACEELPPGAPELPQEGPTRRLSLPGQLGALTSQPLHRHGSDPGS

| Compound | hERG current change (%, negative = inhibition) at 1uM [%] |
| --- | --- |
| Cl.NC(CO)C(=O)NNCc1ccc(O)c(O)c1O (stereo not shown) | 13.1 |
| COC(=O)C1=C(C)N(Cc2ccccc2)C(=NCCc2ccccn2)N[C@H]1c1cccc(F)c1 | -14.2 |
| Br.N=C1CCCN1CC(=O)c1ccc(Br)cc1 | -0.319 |
| CC(CNC(=O)c1ccccc1[N+](=O)[O-])NC(=O)c1ccccc1[N+](=O)[O-] (stereo not shown) | 13.5 |
| CCOc1ccccc1N1CCN(CC(=O)c2c(N)n(C)c(=O)n(C)c2=O)CC1 | 8.99 |
| CC(=O)Nc1ccc(S(=O)(=O)NCC(=O)OCC(=O)NNC(=O)c2ccccc2)cc1 | 5.9 |
| CN(C)/C=C(\C#N)S(=O)(=O)c1ccc(Cl)cc1 | 9.98 |
| O=C(NC1CCCCC1)c1cc(-n2cnnc2)ccc1Cl | 11.2 |
| O=C(COC(=O)c1ccccc1NC(=O)c1ccco1)NC1CC1 | -0.487 |
| CNC(=O)NC(=O)C(NC1CCCc2ccccc21)c1ccccc1 (stereo not shown) | 13.5 |
| Cc1ccc(-n2c(CNc3cccc(Cl)c3)n[nH]c2=S)cc1 | 12.8 |
| CC(C)c1ccc(NC(=O)C2CCCN2S(=O)(=O)c2ccccc2F)cc1 (stereo not shown) | 10.7 |
| N#C/C(=C(/O)COC(=O)CSc1ccc2ccccc2c1)c1nc2ccccc2[nH]1 | 8.5 |
| COc1cccc(NC(=S)N(CCN(C)C)C(C)c2cccnc2)c1 (stereo not shown) | 16.5 |
| COc1ccc(N(CC(=O)NCc2ccco2)S(C)(=O)=O)cc1 | 8.8 |
| CCCCN(CCCC)S(=O)(=O)c1ccc(NC(=O)c2cccs2)cc1 | 8.4 |
| CC(C)c1ccc(C(=O)N2CCCN(C(=O)c3ccc(C(C)C)cc3)CC2)cc1 | 4.35 |
| O=C(CCCC(=O)OCC(Cl)=C(Cl)Cl)Nc1cccc2ccccc12 | 12.9 |
| COc1ccc(NC(=O)CO/N=C/C(=O)Nc2ccccc2C)c([N+](=O)[O-])c1 | 2.96 |
| COCCNC(=O)c1cc(-c2ccccc2)n(CC2CC(c3ccc(OC)cc3)=NO2)n1 (stereo not shown) | 1.17 |
| CCOC(=O)c1[nH]c(C)c(C(=O)N2CCN(c3ccccc3)CC2)c1C | -3.94 |
| CC(C)(C)c1nn2cnnc2n(/N=C/c2ccccc2)c1=O | 4.2 |

| Compound | hERG current change (%, negative = inhibition) at 1uM [%] |
| --- | --- |
| CC(Cc1ccccc1)C(=O)NCc1ccccn1 (stereo not shown) | 4.46 |
| CCc1nnc(NS(=O)(=O)c2ccc(N/C=C\C(=O)c3ccc(C)cc3)cc2)s1 | 10.8 |
| CC(C)CC1=C/C(=C/c2ccc(-c3ccccc3)o2)C(=O)O1 | 3.31 |
| O=C(OCC(=O)N1CCc2ccccc21)c1c2c(nc3ccccc13)CCCC2 | 8.64 |
| CCOCCCN(C(=O)c1snc(C(N)=O)c1N)C(C(=O)NC1CCCC1)c1ccc(OC)cc1 (stereo not shown) | -23.6 |
| CCOc1nc(-c2ccccc2)ccc1-c1noc(-c2ccco2)n1 | 13.5 |
| Cc1nc(-c2cccc(C(F)(F)F)c2)sc1C(=O)O | 12.6 |
| Cc1ccc(S(=O)(=O)N2CCCC2)cc1[N+](=O)[O-] | -5.99 |
| COc1ccccc1Oc1coc2c(CN3CCN(C)CC3)c(O)ccc2c1=O | 9.69 |
| CCOC(=O)C1CCN(C(=O)/C=C/c2ccccc2)CC1 | 8.51 |
| C#CCOCCOCCOCCNc1nc(N2CCN(C(=O)C([C@@H](C)CC)n3cc(C(N)CC(C)C)nn3)CC2)nc(N2CCN(C(=O)[C@H](CCCCN)n3cc(C(N)COC(=O)C(F)(F)F)nn3)CC2)n1.Cl (stereo partly shown) | 0.453 |
| COc1ccc(OC)c(S(=O)(=O)NCCCN2CCCC2=O)c1 | 10.2 |
| CCC(=O)N1CCN(c2ccc(Cl)cc2NC(=O)c2ccc(Br)o2)CC1 | -2.05 |
| CCN(CC)S(=O)(=O)c1ccc(/C=C/C(=O)N(c2ccccn2)C2CCCCC2)cc1 | 4.46 |
| O=C(NCC(c1ccco1)N1CCCCC1)c1cccc(S(=O)(=O)Nc2ccccc2Cl)c1 (stereo not shown) | 1.64 |
| CCOC(=O)c1c(-c2ccccc2)csc1NC(=O)c1ccc(S(=O)(=O)N2CC(C)OC(C)C2)cc1 (stereo not shown) | 3.62 |
| Cc1ccccc1Nc1nc(N)nc(COC(=O)c2ccc(O)cc2)n1 | 9.95 |
| Cc1ccccc1CS(=O)(=O)c1ccc(C(=O)N2CCC(C)CC2)cc1[N+](=O)[O-] | 0.513 |
| CC(C)CCOc1ccc(C2CC(=O)N(C)C2=O)cc1 (stereo not shown) | 2.07 |
| Cc1ccc(C)c(NC(=O)CN(C)C(=O)c2cc3ccccc3o2)c1 | 10.3 |
| COc1ccccc1C(=O)NCC(=O)NCCc1ccc(Cl)cc1 | 5.01 |
| O=C(CCN1CCOCC1)NNC(=O)Nc1cccc(C(F)(F)F)c1 | 13.7 |

| Compound | hERG current change (%, negative = inhibition) at 1uM [%] |
| --- | --- |
| CCCCOC(=O)Cn1c(=O)oc2ccc(C)cc21 | 14.6 |
| N=c1oc2ccc([N+](=O)[O-])cc2cc1C(=O)NCc1ccccc1 | 10.6 |
| [O-][n+]1ccccc1/C=C/c1ccccc1 | 11.9 |
| CC(C)n1cc(CN2CCC(C(=O)Nc3cccc(-c4cccc(Cl)c4)c3)CC2)cn1 | -30.5 |
| COc1ccc(N2CCN(S(=O)(=O)c3c(C)[nH]c(C)c3C(=O)N3CCCCC3)CC2)cc1 | 11.7 |
| CN1CCN(CC(C)(C)NS(=O)(=O)c2ccc(Cl)cc2)CC1 | -8.14 |
| CCN(CC)C(=O)c1ccc(NC(=O)c2cn(-c3ccccc3)nc2-c2ccc(OC)cc2)cc1 | 7.99 |
| N#Cc1c2n(c3c(=O)n(CC(=O)c4ccc(Br)cc4)cnc13)CCCC2 | 1.58 |
| Cc1ccc(S(=O)(=O)NCCCN2CCOCC2)cc1C | 12.3 |
| CCOc1ccccc1-c1nnc(SCC(=O)NC2CC2)n1CC | 13 |
| CC(=O)Nc1nnc(SCC(=O)NCC2CCCO2)s1 (stereo not shown) | 13.6 |
| CCOc1ccc(S(=O)(=O)N2CCCC(C(=O)N3CCOCC3)C2)cc1C (stereo not shown) | 9.59 |
| CC(C)CC(COCc1cccc(Cl)c1)N1CCN(C(=O)c2ccc(C(F)(F)F)cc2)CCC1=O (stereo not shown) | 4.93 |
| CCCCC(O)(c1ccc(OC)cc1)C(CN1CCOCC1)c1ccccc1.Cl (stereo not shown) | 5.77 |
| CCC(C)C(NC(=O)C1CCC(C)CC1)C(=O)NCc1cccnc1 (stereo not shown) | 11.9 |
| O=C(N/N=C1\CCc2ccccc21)c1ccc(O)cc1 | 10.7 |
| Cc1c(Cl)cccc1NC(=S)NCC(c1cccnc1)N(C)C (stereo not shown) | 1.57 |
| O=C(c1cc(C2CC2)on1)N1CCN(c2ccccc2)CC1 | 9.68 |
| O=C(CCNS(=O)(=O)c1cccc(C(F)(F)F)c1)NC1CC1 | 7.76 |
| OC1CCN(c2ncnc3nc[nH]c23)CC1 | -4.1 |
| Cc1cc(C(=O)c2cccs2)c(N)s1 | 5.02 |
| Cc1nc2ccccc2c(=O)n1NC(=O)c1cncc(Br)c1 | 22.4 |

| Compound | hERG current change (%, negative = inhibition) at 1uM [%] |
| --- | --- |
| S=C(NCC1COc2ccccc2O1)Nc1ccc(Br)cc1 (stereo not shown) | 6.55 |
| O=C(COc1ccc2ccc(=O)oc2c1)OCc1ccccc1 | 11.1 |
| CCCCn1c(SCC(=O)c2ccc3c(c2)OCCO3)nnc1-c1ccoc1C | -1.11 |
| Cc1ccccc1-c1nsc(SCC(=O)NCc2ccc3c(c2)OCO3)n1 | 3.11 |
| COc1cccc(C(=O)NC2=NCCS2)c1 | 12.6 |
| CCOc1cc(/C=C/C(=O)NCCc2ccc(S(N)(=O)=O)cc2)ccc1OCC(C)C | 11.5 |
| COc1ccccc1Nc1nc2ccc(C)cc2n2cnnc12 | 5.54 |
| CCCCNc1c(C(=O)OCC)c(C)nc2c1cnn2CC | -3.96 |
| CC(C)C(C(=O)Nc1ccc(S(N)(=O)=O)cc1)N1C(=O)c2ccccc2C1=O (stereo not shown) | 15.2 |
| COC(=O)CSc1nnc([C@H](CC(C)C)NC(=O)OC(C)(C)C)o1 | -12.4 |
| CCn1cc(CNC(=O)/C=C/c2cnn(C)c2)c(C)n1 | 10.6 |
| COc1ccc(CNC(=O)[C@@H]2CC=C[C@@H]3CCN(Cc4ccc(Cl)c(Cl)c4)C(=O)[C@@H]32)cc1 | 13.3 |
| Brc1ccc2nc3c(n2c1)CCCC3 | -6.31 |
| CCc1ccc2c(c1)c(N=NC1=NC(=O)CS1)c(O)n2C | 6.8 |
| CCOC(=O)C1=C(O)/C(=C/N(C)C)N=C1C | 4.23 |
| CCc1ccccc1N(C(=O)c1snc(C(N)=O)c1N)C(C(=O)NCC1CCCO1)c1ccc(C)o1 (stereo not shown) | -7 |
| CCOC(=O)c1cc(C#N)c(N2CCNCC2)nc1C(F)(F)F | 8.53 |
| CCOC(=O)c1sc(-c2cccs2)nc1C | 7.51 |
| O=C(/C=C/c1ccco1)Nc1ccccc1N1CCCC1 | -5.29 |
| COc1ccccc1N(CC(=O)NC1CCCCC1)S(=O)(=O)c1ccccc1 | 15.3 |
| O=C1c2ccc([N+](=O)[O-])cc2C(=O)N1c1ccc([N+](=O)[O-])cn1 | 12.4 |
| O=C(Nc1nc2ccc(F)cc2s1)Oc1ccccc1 | 18.8 |
